Measured values reported in PubChem BioAssay AID1347165 (National Center for Advancing Translational Sciences (NCATS), 2019).
The campaign covered roughly 220,000 compounds. About 5,700 (2.6%) were called active. The inconclusive results got no clear call from the source; some entries with a clear call stand among them for comparison. Calls come from the whole dose curve; as a rule, active = well fitted inhibition curve with a large enough effect; inconclusive = small, poorly fitted or top-dose-only effect; inactive = no such curve, though single readings can be large or run the other way. A potency beside an inconclusive call is a rough fit, not a confirmed value.

These molecules were tested against Lysine-specific demethylase 5B (Homo sapiens) (UniProt Q9UGL1) (assay: Primary screen for KDM5B Histone Demethylases FDH-coupled qHTS). Settings: FDH-coupled NADH fluorescence (FDH is formaldehyde dehydrogenase); activity change, negative = inhibition: at 57.7 µM (top of the series) unless noted.
Summary of the method: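 Compound dilutions met 200 nM (final) KDM5BΔAP for 10 min at room temperature before substrate addition. The substrate mix held 12.5 µM H3K4me3 with cofactors 25 µM α-ketoglutarate and 50 µM Fe²⁺. NADH signal gain over 30 min defined activity.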
Note: nearly all actives have a fitted effect of over 70% in size.
Potency is the fitted concentration of half-maximal effect; tags give direction and shape of the fitted curve.
Throughout, for activity change, negative = inhibition: 0% is about no effect.

Sequence of UniProt Q9UGL1 (Q9UGL1 whole entry, looked up): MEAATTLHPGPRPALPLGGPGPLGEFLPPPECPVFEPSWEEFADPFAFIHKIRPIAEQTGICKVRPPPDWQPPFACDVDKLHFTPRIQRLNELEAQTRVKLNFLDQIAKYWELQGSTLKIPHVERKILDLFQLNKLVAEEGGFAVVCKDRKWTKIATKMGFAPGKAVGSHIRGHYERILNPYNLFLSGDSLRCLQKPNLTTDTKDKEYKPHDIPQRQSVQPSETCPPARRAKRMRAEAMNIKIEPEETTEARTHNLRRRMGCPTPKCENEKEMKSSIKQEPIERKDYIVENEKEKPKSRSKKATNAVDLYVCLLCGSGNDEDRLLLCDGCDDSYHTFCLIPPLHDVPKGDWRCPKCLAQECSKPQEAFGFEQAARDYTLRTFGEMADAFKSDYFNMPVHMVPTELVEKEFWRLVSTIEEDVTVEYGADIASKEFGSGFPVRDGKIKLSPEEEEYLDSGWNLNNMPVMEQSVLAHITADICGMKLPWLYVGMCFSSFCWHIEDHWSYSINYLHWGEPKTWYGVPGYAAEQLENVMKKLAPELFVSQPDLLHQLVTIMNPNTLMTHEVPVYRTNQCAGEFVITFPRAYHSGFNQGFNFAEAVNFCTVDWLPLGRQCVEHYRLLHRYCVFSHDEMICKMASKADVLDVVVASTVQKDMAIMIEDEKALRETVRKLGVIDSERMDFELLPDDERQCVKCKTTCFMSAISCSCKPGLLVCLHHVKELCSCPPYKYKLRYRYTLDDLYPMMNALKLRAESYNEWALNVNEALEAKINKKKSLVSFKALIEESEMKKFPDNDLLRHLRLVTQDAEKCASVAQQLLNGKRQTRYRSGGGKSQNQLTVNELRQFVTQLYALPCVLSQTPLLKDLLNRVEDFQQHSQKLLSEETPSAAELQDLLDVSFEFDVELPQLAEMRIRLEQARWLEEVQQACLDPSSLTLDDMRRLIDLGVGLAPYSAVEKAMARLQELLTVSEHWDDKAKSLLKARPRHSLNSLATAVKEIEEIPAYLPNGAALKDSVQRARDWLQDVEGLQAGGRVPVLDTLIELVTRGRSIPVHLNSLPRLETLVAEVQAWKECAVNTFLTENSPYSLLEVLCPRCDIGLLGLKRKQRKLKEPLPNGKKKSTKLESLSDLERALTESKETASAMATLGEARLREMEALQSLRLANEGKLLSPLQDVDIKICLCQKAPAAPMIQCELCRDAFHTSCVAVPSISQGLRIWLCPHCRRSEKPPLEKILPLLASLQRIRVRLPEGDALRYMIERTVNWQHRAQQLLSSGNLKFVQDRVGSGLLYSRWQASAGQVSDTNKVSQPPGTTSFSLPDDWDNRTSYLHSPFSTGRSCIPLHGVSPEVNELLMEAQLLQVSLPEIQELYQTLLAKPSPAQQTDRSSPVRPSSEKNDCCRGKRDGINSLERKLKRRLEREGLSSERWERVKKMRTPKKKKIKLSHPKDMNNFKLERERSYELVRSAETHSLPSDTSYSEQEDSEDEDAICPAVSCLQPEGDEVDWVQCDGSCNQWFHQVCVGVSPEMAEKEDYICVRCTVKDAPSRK

Structure (SMILES)	activity change, negative = inhibition	Potency
CC(C)(C)NC(=O)c1ccc(COc2cccc3c2OC(C)(C)C3)cc1	inactive: -2.28%	–
CN(C)c1cccc(C(=O)N/N=C/c2ccc(Cl)s2)c1	inactive: 17.8%	–
Cc1ccc(S(=O)(=O)N2CCCc3cc(NC(=O)c4ccc(Cl)cc4)ccc32)cc1	–	inconclusive: 15.8 µM [inhibitor, partial curve, poor fit]
CCN(CC)c1ccc(NC(=O)C2CCN(S(=O)(=O)c3c(C)noc3/C=C/c3ccccc3F)CC2)c(C)c1	–	inconclusive: 2.24 µM [inhibitor, full curve, poor fit]
Cc1ccc(S(=O)(=O)NCCc2cccc3cccnc23)cc1	inactive: 12.8%	–
CN(C)C(=O)N1CCCC1c1nnc2n1CCNC2 (stereo not given)	–	inconclusive: 89.1 µM [inhibitor, partial curve]
O=C1CCC2(CCN1CC1CC1)CCN(C(=O)c1ccc3c(c1)OCO3)CC2	–	inconclusive: 7.08 µM [inhibitor, single point]
N#Cc1cc(C(=O)c2ccccc2OCC(=O)Nc2ccc(F)cc2)cn(C2CCCCC2)c1=O	inactive: -11%	–
O=C(O)c1cc(-c2ccc(CN3CCCC(CO)C3)o2)ccc1Cl (stereo not given)	–	inconclusive: 20 µM [inhibitor, partial curve, poor fit]
NC(=O)C1CCN([C@H]2[C@@H]3OC[C@@H](O3)[C@@H](NCc3ccncc3)[C@@H]2O)CC1	–	inconclusive: 35.5 µM [inhibitor, single point]
Cc1cc(C)c2c(=O)[nH]c(SCC(=O)N3CCCCC3)nc2n1	–	inconclusive: 28.2 µM [inhibitor, single point]
O=C(c1ccc(F)c(F)c1)N(Cc1ccco1)C1CC1	inactive: 19%	–
Cc1ccc(-n2ncc3c(NC4CCCCC4)ncnc32)cc1C	–	inconclusive: 25.1 µM [inhibitor, partial curve, poor fit]
COc1ccc(-c2nc(CNC(=O)NC(C)C)c(C)o2)cc1	–	inconclusive: 39.8 µM [inhibitor, single point]
COc1ccccc1C(=O)Nc1ccc([C@@H](O)[C@H]2COCC(=O)N2Cc2ccccc2F)cc1	inactive: -6.5%	–
COCCN(CCNC(=O)C1Cn2cccc2C(=O)N1)Cc1ccco1 (stereo not given)	–	inconclusive: 35.5 µM [inhibitor, partial curve, poor fit]
Cc1cn2nc(C(=O)NCc3ccccc3F)cc2c(N2CCCC2)n1	–	active: 25.1 µM
COc1ccc2oc(-c3ccc(NC(=O)c4cccc(F)c4)cc3)nc2c1	–	inconclusive: 11.2 µM [inhibitor, partial curve, poor fit]
CCOC(=O)c1cc2c(=O)n3ccccc3nc2n(CCOC)c1=NC(=O)c1c(-c2c(F)cccc2Cl)noc1C	–	inconclusive: 1.58 µM [inhibitor, full curve, poor fit]
N#Cc1cccc(-c2ccnc(N[C@H]3CO[C@H]4[C@@H]3OC[C@H]4OC(=O)Nc3ccc(Oc4ccccc4)cc3)n2)c1	inactive: 585%	–
CCCC(NCc1ccco1)c1ccccc1 (stereo not given)	inactive: 13.1%	–
COCCNc1nc(-c2c(C)noc2C)cc2cc(CO)oc12	–	inconclusive: 25.1 µM [inhibitor, single point]
Cc1cccc(NC(=O)CN2C(=O)C(c3ccc(F)cc3)=NC23CCCCCC3)c1C	inconclusive: -32.9% [inhibitor]	–

Structure (SMILES)	activity change, negative = inhibition	Potency
O=C(O)Cn1ccc2cc(OCCc3cccc(-c4cccnc4)c3)cnc21	–	active: 35.5 µM
CC(=O)N1CCc2cc(Br)cc(S(=O)(=O)CCC(=O)NCc3ccc(F)cc3)c21	–	inconclusive: 31.6 µM [inhibitor, single point]
CC(C)=CC(=O)Nc1sc(C)c(C)c1C#N	–	inconclusive: 39.8 µM [inhibitor, single point]
COC(=O)c1nc2ccccc2nc1NCCc1ccc(C)cc1	inactive: 1.83%	–
COc1ccc(OCC(=O)N2CCN(C(=O)c3ccc(OC)c(OC)c3)CC2)cc1	inconclusive: -36.5% [inhibitor]	–
O=S(=O)(c1ccsc1-c1nc(-c2cccnn2)no1)N1CCCC1	–	inconclusive: 10 µM [inhibitor, partial curve, poor fit]
COc1cc(C(=O)OCCOc2ccccc2F)cc(OC)c1OC	inactive: -12.5%	–
O=C(Nc1ccc(Cl)cc1Cl)c1ccc2ccnn2c1	–	inconclusive: 31.6 µM [inhibitor, partial curve, poor fit]
CCc1ccc(-n2nc(C)c3c(C(F)(F)F)cc(OCC(=O)NC(C)C)nc32)cc1	inactive: 2.73%	–
Cc1ccc(O)c(CO)n1	–	inconclusive: 31.6 µM [inhibitor, partial curve, poor fit]
O=C(Cc1c[nH]c2ncc(-c3cccc(F)c3)cc12)NCc1cccnc1	–	inconclusive: 31.6 µM [inhibitor, partial curve, poor fit]
Cc1cn2nc(C(=O)Nc3ccccc3F)cc2c(N(C)Cc2ccccc2)n1	–	active: 22.4 µM
COc1ccc(CCNC(=O)c2cnc3sc(N4CCCCCC4)nn3c2=O)cc1	–	inconclusive: 2 µM [inhibitor, full curve, poor fit]
Cc1nc2cc(F)ccc2cc1C(=O)NCc1cccnc1-n1cncn1	inactive: 16.8%	–
COc1ccc(Cl)cc1NC(=O)COc1ccccc1Br	–	inconclusive: 28.2 µM [inhibitor, single point]
O=C(c1cncc(Br)c1)N1CCCC(Cc2nc(C3CCOCC3)no2)C1 (stereo not given)	–	active: 31.6 µM
Cc1nnc(NC(=O)CSc2nc3c([nH]c4ccccc43)c(=O)n2-c2cccc(Cl)c2)s1	–	inconclusive: 35.5 µM [inhibitor, single point]
Cn1cc(CN2CCOC[C@H](Oc3ccccc3)C2)cn1	inactive: 3.95% [at 115 µM]	–
CN(Cc1ccccc1)C(=O)c1ccccc1C(=O)OCC(=O)C(C)(C)C	inactive: 17.6%	–
CCC1CCCCN1CCCNC(=O)c1ccc2c(c1)N(Cc1cccc(Cl)c1)C(=O)c1ccccc1S2(=O)=O (stereo not given)	–	inconclusive: 10 µM [inhibitor, partial curve, poor fit]
CS(=O)(=O)c1ccc(CN2CCC[C@H]2c2nc(-c3ccnc(N4CCC(C(N)=O)CC4)c3)no2)cc1	–	active: 28.2 µM
CCN(CC)c1ccc(C(=O)NCc2nnc3ccc(-c4ccc(OC)cc4)nn23)cc1	inactive: 22.9%	–
